In PubChem BioAssay AID463173 (ICCB-Longwood Screening Facility, Harvard Medical School, 2010):
About 4,300 (8.3%) of roughly 52,000 compounds were called active. Rule as the data show it: active = survival mostly below about 52% (no sharp cut-off); inactive = mostly above about 56%. Some of the results follow.

test system: DeltatarO mutant; experiment: S. aureus survival, RN4220 and DeltatarO strains – OD600, teichoic acid synthesis inhibitors, primary screen (AID 463173); conditions: S. aureus RN4220 wild type/DeltatarO growth, OD600, 18 h, stronger effect = lower value, screened at 18.75 µg/mL (by protocol)

`O=C(CN1C(=O)CC(c2ccco2)Sc2ccccc21)Nc1ccc(C(F)(F)F)cc1` (centres undefined) was tested. Which survival did it give?
The survival was inactive: 68%.

For `C1Cc2nnc3c4c(nnc(c24)C1)CCC3`, which survival is on record?
Its survival is inactive: 88%.

Which survival does the source give for `CCc1ccccc1NC(=O)Nc1nnc(N(C)Cc2ccccc2)s1` here?
The survival was inactive: 60%.

For `CCOc1ccc(C(=O)N2CCC(C)CC2)cc1`, which survival is on record?
The survival was inactive: 74%.

`COc1cccc(-c2nnc(-c3ccc(C)o3)o2)c1` was tested. Which survival did it give?
Its survival is inactive: 58%.

For `Clc1ccc(N2CCN(c3ncnc4c3cnn4-c3ccccc3)CC2)cc1Cl`, which survival is on record?
Its survival is inactive: 67%.

How did the survival turn out when `Cn1c(=O)c2c(nc(NN=C3CCCCC3)n2C)n(C)c1=O` was run?
The survival was inactive: 103%.

Which survival does the source give for `COc1ccc(NC(=O)c2cc(S(=O)(=O)N3CCCCCC3)cn2C)cc1Cl` here?
Its survival is inactive: 77%.

How did the survival turn out when `COc1ccc(CNC(=O)CCNS(=O)(=O)c2cccc3nsnc23)cc1` was run?
The survival was inactive: 54%.

How did the survival turn out when `CCOc1ccccc1CNC(=O)c1ccc(NC(=O)N2CCSc3ncccc32)cc1` was run?
The survival was inactive: 79%.

How did the survival turn out when `COc1ccc(OC)c(CNC(=O)Cn2nc(C)c3nn(-c4ccc(Cl)cc4)c(C)c3c2=O)c1` was run?
The survival was inactive: 83%.

`COc1ccc2oc(=O)c(-c3cn4c(n3)sc3cc(OC)ccc34)cc2c1` was tested. Which survival did it give?
The survival was inactive: 54%.

`COc1ccc(OC)c(NC(=O)c2ccccc2)c1` was tested. Which survival did it give?
Its survival is inactive: 105%.

How did the survival turn out when `COc1ccc2c(Sc3ccccc3)c(C(=O)NCCCN3CCCCC3)[nH]c2c1` was run?
Its survival is inactive: 54%.

For `COc1ccc(/C=C/C(=O)Nc2nc3n(n2)C(c2ccccc2)C=C(c2ccc(Cl)cc2)N3)cc1` (centres undefined), which survival is on record?
The survival was inactive: 77%.

Which survival does the source give for `O=C(CSC1=NC(=O)C(c2ccccc2)C(=O)N1)Nc1nncs1` (centres undefined) here?
Its survival is inactive: 70%.

Which survival does the source give for `CN(C)c1ncnc(Cl)c1N` here?
The survival was inactive: 60%.

How did the survival turn out when `CCC(C)Sc1oc(-c2ccco2)nc1S(=O)(=O)c1ccc(C)cc1` (centres undefined) was run?
Its survival is active: 18%.

With `COc1cccc(C2C(C(=O)Nc3ccc(Cl)cc3)=C(C)Nc3nc4ccccc4n32)c1` (centres undefined) as the compound, how does the survival read?
The survival was inactive: 53%.

With `COc1ccccc1C1Nc2c(sc3nc(C)cc(C)c23)C(=O)N1c1ccccc1` (centres undefined) as the compound, how does the survival read?
Its survival is inactive: 66%.

With `COc1cccc(CC(=O)Nc2ccc(-c3nc4ccccc4s3)cc2)c1` as the compound, how does the survival read?
The survival was active: 0%.

`COc1ccc(Cl)cc1NC(=O)c1nnn(Cc2cccc(C(F)(F)F)c2)c1N` was tested. Which survival did it give?
The survival was inactive: 122%.

Which survival does the source give for `COc1ccc2c(c1)c1c(c(=O)n(-c3ccc(C)cc3)c(=O)n1CC(=O)NCc1ccc(C)cc1)n2C` here?
Its survival is inactive: 94%.

With `COc1ccc(OCC(=O)Nc2cc(-c3nc4ccccc4s3)ccc2C)cc1` as the compound, how does the survival read?
The survival was active: 45%.

For `CCc1nnc(NC(=O)CN2CCN(c3ccccc3)CC2)s1`, which survival is on record?
The survival was inactive: 76%.

For `Cc1cccc(N2CCN(S(=O)(=O)c3ccc(-c4cc(C(F)(F)F)on4)s3)CC2)c1C`, which survival is on record?
The survival was inactive: 101%.

For `Cc1ccccc1OCC(=O)Nc1ccc2nc(SCC(=O)N3CCc4ccccc43)sc2c1`, which survival is on record?
The survival was inactive: 56%.

For `O=C(C1CCCN(S(=O)(=O)c2ccc(Br)s2)C1)N1CCN(c2cccc(Cl)c2)CC1` (centres undefined), which survival is on record?
Its survival is inactive: 99%.

With `CNc1ccc(-c2nc(-c3ccco3)no2)cc1[N+](=O)[O-]` as the compound, how does the survival read?
The survival was inactive: 53%.

With `CC(C)NC(=O)c1cc(-c2ccccc2)on1` as the compound, how does the survival read?
The survival was inactive: 98%.

How did the survival turn out when `Cc1ccccc1NC(=O)c1ccc2c(O)c(S(=O)(=O)c3ccccc3)c(=O)[nH]c2c1` was run?
The survival was inactive: 69%.

With `CC(=O)Oc1cccc(NC(=O)CC2SC(N)=NC2=O)c1` (centres undefined) as the compound, how does the survival read?
The survival was inactive: 96%.

How did the survival turn out when `Cc1cc2c(cc1C)NC(CC(=O)Nc1cccc(Cl)c1)C(=O)N2` (centres undefined) was run?
The survival was inactive: 65%.

`NS(=O)(=O)c1ccc(CCNC(=O)Cn2c(-c3cccs3)cc3ccccc32)cc1` was tested. Which survival did it give?
The survival was inactive: 107%.

For `C=CCN1CCN(C(c2ccccc2)c2nnnn2CCC(C)C)CC1` (centres undefined), which survival is on record?
Its survival is inactive: 94%.

Which survival does the source give for `O=C(NCC(c1ccc2c(c1)OCO2)N1CCOCC1)C(=O)Nc1ccccc1` (centres undefined) here?
Its survival is inactive: 81%.

With `CCN(CC)c1ccc(NC(=O)CCc2nc3cccnc3n2Cc2cccs2)c(C)c1` as the compound, how does the survival read?
The survival was inactive: 51%.

With `O=C(NCCc1ccccc1)c1ccc(CS(=O)(=O)Cc2ccccc2Cl)o1` as the compound, how does the survival read?
Its survival is inactive: 87%.

`CCc1ccc(NC(=O)CN2C(=O)CCSc3ccccc32)cc1` was tested. Which survival did it give?
Its survival is inactive: 86%.

Which survival does the source give for `Cc1cc(=O)n(CC(=O)NCc2ccc(OC(C)C)cc2)c2c1c(C)nn2-c1cccc(F)c1` here?
The survival was inactive: 77%.

With `Cc1cc(C)cc(NS(=O)(=O)c2ccc(N3CCCCS3(=O)=O)cc2)c1` as the compound, how does the survival read?
The survival was inactive: 76%.

`C=COCCn1c(-c2nonc2N)nc2ccccc21` was tested. Which survival did it give?
Its survival is inactive: 80%.

With `CNC(=O)NCCN1CCCC1=O` as the compound, how does the survival read?
Its survival is inactive: 64%.

`COc1ccc(CCNC(=O)c2c(C)oc3ncnc(N4CCOCC4)c23)c(OC)c1` was tested. Which survival did it give?
Its survival is inactive: 101%.

For `Cc1cc(C)cc(Nc2cc(C(=O)NC3CCC(C)CC3)c3ccccc3n2)c1` (centres undefined), which survival is on record?
The survival was inactive: 106%.

`Cc1ccc(S(=O)(=O)Nc2cc3c(cc2C)n(C)c(=O)c(=O)n3C)c(C)c1` was tested. Which survival did it give?
Its survival is inactive: 76%.

For `Cn1nnnc1SCCCNCc1ccc(-c2ccc(F)c(Cl)c2)o1`, which survival is on record?
The survival was inactive: 82%.

`CCc1nc(-c2cc(S(=O)(=O)N3CCN(c4ccccc4F)CC3)ccc2OC)no1` was tested. Which survival did it give?
Its survival is active: 42%.

For `CCCN1C(C(=O)c2ccccc2)=C(OC(=O)c2ccc(OC)cc2)c2ccccc2S1(=O)=O`, which survival is on record?
Its survival is inactive: 56%.

For `O=C(Cn1c(=O)c(C(F)(F)F)nc2ccccc21)Nc1cccc(Br)c1`, which survival is on record?
The survival was inactive: 99%.

`CC(C)(C)C(=O)NC1CCN(CC(=O)N(C2CCCCC2)C2CCCCC2)CC1` was tested. Which survival did it give?
The survival was inactive: 72%.

Which survival does the source give for `CCn1c(=O)sc2cc(NS(=O)(=O)c3ccc(C)cc3)ccc21` here?
The survival was inactive: 62%.

Which survival does the source give for `CC(=O)Nc1ccc(NC(=O)c2ccc3c(c2)NC(=O)c2ccccc2S3)cc1` here?
The survival was inactive: 107%.

How did the survival turn out when `Cc1ccc(NC(=O)C(C)Sc2nc(-c3ccccc3)c(C#N)c(=O)[nH]2)c(C)c1` (centres undefined) was run?
Its survival is inactive: 70%.

Which survival does the source give for `O=C(Nc1nnc(S(=O)(=O)N2CCOCC2)s1)c1ccccc1F` here?
The survival was inactive: 86%.

`CC(C)Cc1nn2c(=O)cc(COC(=O)c3ccc(NC(=O)CCc4ccccc4)cc3)nc2s1` was tested. Which survival did it give?
Its survival is inactive: 77%.

For `O=c1c(N2CCc3ccccc3C2)csc2ccc(Cl)cc12`, which survival is on record?
The survival was inactive: 91%.

How did the survival turn out when `CC(C)c1cnc2c(c1SCC(=O)N1CCCCC1)c(=O)n(C)c(=O)n2C` was run?
Its survival is inactive: 107%.

`COc1ccc(Nc2c(-c3ccc(N4CCOCC4)cc3)nc3ncccn23)cc1OC` was tested. Which survival did it give?
The survival was inactive: 90%.
